Experimental findings from PMC10668032 are described below.

Some of the results follow. At the low end of the ranking the order means little.

For this test, the target named is SIX1 homeodomain (reference allele) (UniProt Q15475). Briefly: universal protein binding microarray. Particulars: Universal all-10-mer PBM (8x60K, AMADID 030236), 300 nM GST-tagged protein, Alexa Fluor 488 anti-GST; buffer, salt, pH and temperature not stated; high values mean tight binding; most listed sequences are background and not binding sites; double strand, one strand shown.
Consider AGCGAGAC, for which the binding signal amounted to 0.00266 E-score.

In the case of CGAAGGCG, the binding signal came to 0.0467 E-score.

On to GTACGGGA, for which the binding signal is -0.0565 E-score.

Take ATAGATAC: the binding signal came out at 0.393 E-score.

Regarding ACGGTGCA, the binding signal was -0.0419 E-score.

For the sequence GGTAACCA, the binding signal is 0.0144 E-score.

Turning to TATCGCCA, the binding signal amounted to 0.364 E-score.

Consider ACCTAAAC, for which the binding signal is -0.17 E-score.

As for CAGTAGGA, the binding signal was -0.125 E-score.

Regarding ACCACTGG, the binding signal was found to be 0.0213 E-score.

Turning to ATACCATC, the binding signal was 0.384 E-score.

CTGATCAC: the binding signal came out at 0.204 E-score.

As to GGTGCCAC, the binding signal was -0.175 E-score.

On to AAAGCATG, for which the binding signal is -0.171 E-score.

As to ATAATGAT, the binding signal turned out to be 0.203 E-score.

Take CCAAGTGC: the binding signal is -0.234 E-score.

With CAGTTGGC, the binding signal was -0.15 E-score.

In the case of CGCGAAGC, the binding signal was -0.187 E-score.

As for ACGATCGC, the binding signal came to 0.133 E-score.

As for TACACTGA, the binding signal was determined as 0.178 E-score.

Turning to CTAAGAAG, the binding signal is -0.00928 E-score.

Turning to ACCAAGAA, the binding signal was -0.134 E-score.

Consider CACCGGCC, for which the binding signal worked out at 0.0599 E-score.

As for ATTGGGGC, the binding signal turned out to be 0.0249 E-score.

For the sequence GCAGTAAA, the binding signal is -0.273 E-score.

Consider ATTGCTCG, for which the binding signal was -0.0692 E-score.

For TAGAACCA, the binding signal was -0.216 E-score.

On to AATATGCA, for which the binding signal is -0.0465 E-score.

For the sequence CCCTAGCC, the binding signal is 0.00481 E-score.

AGCTGGAG: the binding signal came to 0.059 E-score.

Turning to GCTTTCGA, the binding signal is -0.204 E-score.

Consider AATCAGCA, for which the binding signal was -0.215 E-score.

Regarding AGAAGCAT, the binding signal was determined as 0.00264 E-score.

As to AGCTTCCG, the binding signal is -0.113 E-score.

Take GCCTTATA: the binding signal worked out at 0.0746 E-score.

For ACGCCAAT, the binding signal is -0.0274 E-score.

Consider GAACGAGC, for which the binding signal was -0.00779 E-score.

On to ATGGTTAA, for which the binding signal is -0.201 E-score.

For the sequence AAGTTGCT, the binding signal was -0.177 E-score.

As to CAGCAAAC, the binding signal was -0.0651 E-score.

As for CCAGGTCA, the binding signal was -0.191 E-score.

For the sequence GGGGTGAA, the binding signal came out at 0.0134 E-score.

Consider AAAATGTC, for which the binding signal was -0.288 E-score.

As to ACACTCTA, the binding signal was determined as 0.0358 E-score.

Consider CCCGCGGC, for which the binding signal was -0.0453 E-score.

Turning to AATGCCAA, the binding signal is -0.213 E-score.

Take GCTCACAC: the binding signal was -0.0542 E-score.

On to TCGTGGCA, for which the binding signal is -0.213 E-score.

As for GCCATAGA, the binding signal is -0.0531 E-score.

In the case of AGACGGGA, the binding signal is 0.2 E-score.

With AGATGTGA, the binding signal amounted to 0.118 E-score.

GAGAGAGC: the binding signal was -0.0912 E-score.

Take GACGCATA: the binding signal stood at 0.13 E-score.

As for ACTTCCCA, the binding signal was -0.116 E-score.

For the sequence AGACCGGG, the binding signal was found to be 0.00194 E-score.

Regarding CGATCCAC, the binding signal was 0.375 E-score.

GGGATTAA: the binding signal turned out to be 0.169 E-score.

CACGTTCA: the binding signal was -0.254 E-score.

As to ACGTGTCC, the binding signal is -0.0719 E-score.

For the sequence CGCATGAG, the binding signal was -0.094 E-score.

As to AGCCGGAT, the binding signal is 0.382 E-score.

As to CCATACAG, the binding signal was 0.0667 E-score.

Regarding CCGGCTCC, the binding signal worked out at 0.0506 E-score.

Regarding GTCGACAC, the binding signal stood at 0.0853 E-score.

On to CTCCATCC, for which the binding signal is -0.175 E-score.

As to CCTCTAAA, the binding signal was -0.272 E-score.

CTTTCTCA: the binding signal is -0.169 E-score.

Regarding CGGTGGCC, the binding signal is -0.256 E-score.

Take CGGTATAA: the binding signal worked out at 0.294 E-score.

As to CCTATTGA, the binding signal came to 0.187 E-score.

As to GTCAGTTA, the binding signal was -0.247 E-score.

Turning to AAAAGAGA, the binding signal was 0.0301 E-score.

Regarding TATGCTGA, the binding signal was -0.0917 E-score.

Consider GATCACAC, for which the binding signal was found to be 0.351 E-score.

Regarding AGACTTTA, the binding signal was -0.136 E-score.

As to GGGCTGAC, the binding signal was -0.077 E-score.

Turning to GCGAGGCC, the binding signal is -0.239 E-score.

On to AGTTCTTA, for which the binding signal is -0.0797 E-score.

In the case of CGTCGACC, the binding signal is -0.0835 E-score.

Take CTTGTAAC: the binding signal is 0.0207 E-score.

Consider AACCTTCA, for which the binding signal was -0.05 E-score.

On to CCTATAGG, for which the binding signal was -0.0403 E-score.

For the sequence AGCAATAC, the binding signal amounted to 0.298 E-score.

As to AGCTGAGC, the binding signal was found to be 0.00751 E-score.

ACTAGGAA: the binding signal was -0.22 E-score.

Consider CTTTCCTA, for which the binding signal is -0.17 E-score.

CTCTTGAC: the binding signal was -0.181 E-score.

For CAGAATTC, the binding signal is -0.203 E-score.

Take ATCAATAG: the binding signal came out at 0.144 E-score.

In the case of GTGTGTGA, the binding signal turned out to be 0.174 E-score.

Regarding TGTTAAAA, the binding signal is -0.186 E-score.

For ACTAGGTC, the binding signal is 0.0304 E-score.

For the sequence GCGTCACA, the binding signal is -0.0639 E-score.

With CCGAAATA, the binding signal turned out to be 0.0853 E-score.

Consider CCACGAGC, for which the binding signal is -0.0401 E-score.

As to AGTATATG, the binding signal was determined as 0.207 E-score.

Consider ATTAGCGC, for which the binding signal was -0.1 E-score.

As for GAATCCCC, the binding signal stood at 0.23 E-score.

Turning to AAGTTCCT, the binding signal was -0.242 E-score.

Turning to AGAGGCAC, the binding signal is -0.214 E-score.

In the case of ATAAGGTC, the binding signal came out at 0.0319 E-score.

With CGGGTAAC, the binding signal was -4.5e-05 E-score.

As to CTTAGAAA, the binding signal is -0.18 E-score.

Regarding CAAATCTG, the binding signal was -0.0299 E-score.

For ACGCTTCG, the binding signal is -0.299 E-score.

With TAAGCGTA, the binding signal was -0.0857 E-score.

With CAGAAACA, the binding signal is -0.121 E-score.

GTGCAACA: the binding signal is -0.111 E-score.

In the case of AGGGAAAC, the binding signal is -0.219 E-score.

As to CGTGCGTA, the binding signal amounted to 0.137 E-score.

For the sequence ACCCACGA, the binding signal was 0.129 E-score.

For the sequence AGTCCCGC, the binding signal is -0.265 E-score.

As to AAAGCGAA, the binding signal is 0.032 E-score.

Take AGGGGATG: the binding signal was determined as 0.201 E-score.

Take TATAGAAA: the binding signal came out at 0.122 E-score.

As for AGCGCCTA, the binding signal is -0.135 E-score.

As for AAACAGCA, the binding signal is -0.205 E-score.

For the sequence AGCGTTAA, the binding signal is -0.275 E-score.

For CAGCGTAG, the binding signal is -0.259 E-score.

In the case of CGAGAATC, the binding signal was found to be 0.00877 E-score.

Take AGGACTCA: the binding signal was -0.1 E-score.

Take CACCTCTA: the binding signal stood at 0.137 E-score.

For the sequence AGGAAGCA, the binding signal was -0.136 E-score.

Regarding ACGTCTCC, the binding signal is 0.0789 E-score.

As for ACAGTGGG, the binding signal is -0.0214 E-score.

With GTCGCAAC, the binding signal is -0.363 E-score.

For ACAACTAG, the binding signal was -0.115 E-score.

Regarding GCAGACAC, the binding signal is 0.0398 E-score.

Take ACCACCCC: the binding signal is -0.0158 E-score.

As to AGGCGGTA, the binding signal was 0.119 E-score.

AGATGCGA: the binding signal was 0.136 E-score.

For the sequence CGGTAAAG, the binding signal is -0.179 E-score.

For the sequence AAGGATCG, the binding signal was 0.349 E-score.

Consider AGCTACGG, for which the binding signal is -0.071 E-score.

With CAGTCTGG, the binding signal was -0.172 E-score.

With GAACTACA, the binding signal was -0.0323 E-score.

Consider ACGTCACC, for which the binding signal is -0.0983 E-score.

Consider AAATAAGG, for which the binding signal is -0.187 E-score.

ATCATTCA: the binding signal was 0.191 E-score.

For the sequence TTGCACAA, the binding signal is -0.23 E-score.

In the case of TAGGCCAA, the binding signal was -0.0625 E-score.

AACGATTC: the binding signal was found to be 0.105 E-score.

As to CCTGCCCC, the binding signal is -0.0828 E-score.

In the case of CCATACGC, the binding signal came to 0.136 E-score.

As for CGTCTTGC, the binding signal was -0.0642 E-score.

For AGATCGCT, the binding signal is 0.265 E-score.

Regarding ATGGGGAA, the binding signal came to 0.0441 E-score.

TGCTGTAA: the binding signal was -0.0938 E-score.

As for AAATCGCT, the binding signal is -0.359 E-score.

With GGATCCCC, the binding signal turned out to be 0.419 E-score.

Regarding AACTGGCC, the binding signal is -0.136 E-score.

As to ATCAAACA, the binding signal stood at 0.173 E-score.

As for CCAGGAGC, the binding signal is -0.238 E-score.

Consider AGCTGACC, for which the binding signal worked out at 0.0424 E-score.

ACTGAGAG: the binding signal was 0.0224 E-score.

For the sequence AGCCTGAA, the binding signal was -0.0467 E-score.

GATAAGTA: the binding signal was found to be 0.151 E-score.

Regarding CAGCCGTC, the binding signal is -0.168 E-score.

Turning to AGGTACCC, the binding signal was -0.102 E-score.

Consider TGCGTGAA, for which the binding signal was -0.000915 E-score.

As to AGCGCGCC, the binding signal is -0.303 E-score.

As for CTCGTACA, the binding signal amounted to 0.093 E-score.

As to AGATTGGA, the binding signal was determined as 0.0364 E-score.

Take GATAGTGA: the binding signal came to 0.231 E-score.

In the case of AATATACG, the binding signal turned out to be 0.162 E-score.

Regarding ACATGACG, the binding signal is -0.13 E-score.

On to ATTCATCA, for which the binding signal was -0.0654 E-score.

On to ATTATAAT, for which the binding signal came out at 0.151 E-score.

For AAGTCGGC, the binding signal was -0.157 E-score.

As to AAAGAAAG, the binding signal was -0.227 E-score.

Consider AAGCCAGA, for which the binding signal was -0.175 E-score.

As to AAAGAAGT, the binding signal is -0.0587 E-score.
